# Measurements: PubChem BioAssay AID686978 (National Center for Advancing Translational Sciences (NCATS), 2013)
# Several values for one entry are separate records, joined by “and”; a condition that tells them apart may be missing. Identical values can stand only once. Screen size: about 420,000 compounds; about 64,000 (15%) were called active. Inconclusive results, whose numbers are uncertain, are shown with a selection of clear calls. The call rests on the fitted dose curve; in most records, active means well fitted inhibition curve with a large enough effect; inconclusive means small, poorly fitted or top-dose-only effect; inactive means flat fitted curve, though single readings scatter. Potencies of inconclusive entries are left out as doubtful fits.
# Assay: qHTS for Inhibitors of human tyrosyl-DNA phosphodiesterase 1 (TDP1): qHTS in cells in absence of CPT; further: nearly all actives have a fitted effect of over 55% in size
# Details: DT40 Tdp1-/- hTDP1 cells, no CPT, ATP luminescence, 48 h; activity change, negative = growth inhibition: at 46.2 µM (top of the series) unless noted
# Procedure, shortened: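 Chicken DT40 Tdp1-/- cells complemented with human TDP1, screened without camptothecin (DMSO vehicle only), 400 cells/well. Compounds pin-transferred, cells incubated at 37 °C for at least 48 hr. Growth read as ATP-dependent luminescence (CellTiter-Glo, 30 min at RT).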
# On the % scale 0 is the no-effect control and ±100 the full control effect; potency means the concentration at half of the fitted maximal effect; tags describe the fitted curve by direction and shape.
Compound,Potency,"activity change, negative = growth inhibition"
COc1cc2c(NC3CCN(C)CC3)nc(N3CCCN(C)CC3)nc2cc1OCC1CCCCN1 (stereo not given),"inconclusive [inhibitor, single point]",
N#CCN1CCC(c2cc(-c3ccco3)n[nH]2)CC1,"inconclusive [inhibitor, partial curve]",
Cc1ccc(-c2csc(NC(=O)CCNC(=O)c3ccccc3Cl)n2)cc1,"inconclusive [inhibitor, partial curve]",
CC(=O)Nc1ccc(S(=O)(=O)N(C)CC(=O)OCC(=O)Nc2ccc3c(c2)OCO3)cc1,,inactive: -16.3%
O=C(C1COc2ccccc2O1)N(Cc1cccnc1)c1nc2c(Cl)cccc2s1 (stereo not given),"inconclusive [inhibitor, single point]",
COc1ccc(OC)c(NC(=O)CSc2ncc3c(n2)-c2ccccc2N(C)S3(=O)=O)c1,"inconclusive [inhibitor, single point]",
COc1cc(C(=O)OCC(=O)N2CCN(S(=O)(=O)c3ccc(C)cc3C)CC2)c([N+](=O)[O-])cc1OC,active: 20.6 µM,
CCOC(=O)N1CCC(N2C(=O)c3ccccc3C2Nc2cc(OC)c(OC)c(OC)c2)CC1 (stereo not given),"inconclusive [inhibitor, single point]",
Cc1cc(NCCCN(C)C)n2nc(-c3cccs3)cc2n1,"inconclusive [inhibitor, partial curve]",
O=C(CCN1C(=O)/C(=C\c2ccccc2)SC1=S)NNC(=O)c1ccccc1O,active: 25.9 µM,
Cc1cc(C(=O)OCC(=O)N2CC(C)CC(C)C2)c(C)o1 (stereo not given),"inconclusive [inhibitor, partial curve, poor fit]",
Cc1ccc(C)c(NC(=O)COC(=O)c2c(C)nn(-c3ccccc3)c2C)c1,,inactive: -22%
COc1ccccc1N1CCN(c2ccnc3cc(Cl)ccc23)CC1,active: 4.61 µM,
COc1ccc(C)cc1NC(=O)CNC(c1ccccc1)c1ccccc1,"inconclusive [inhibitor, single point]",
Cc1ccc(CNC(=O)c2cc(S(=O)(=O)N3CCCC3)cn2C)cc1,,inactive: -5.83%
COc1cc(OC)cc(C(=O)Nc2ccn(C)n2)c1,,inactive: -3.52%
O=C(C1=C[C@@H](c2ccc(Br)cc2)C[C@@H](OCc2ccc(CO)cc2)O1)N1CCN(Cc2ccccc2)CC1,active: 23.1 µM,
COc1ccc2cc(C)c3nnc(SCC(=O)Nc4cc(OC)c(OC)cc4C(=O)O)n3c2c1,,inactive: -2.7%
CCOCCCNC(=O)c1ccc(Cn2c(=O)[nH]c3ccsc3c2=O)cc1,"inconclusive [inhibitor, single point]",
COc1ccc(C(=O)NC(=S)NC(C)c2ccccc2)cc1 (stereo not given),"inconclusive [inhibitor, single point]",
CCc1ccc(NC(=O)C/C(C)=N/NC(=O)OCc2ccc(OC)cc2)cc1,"inconclusive [inhibitor, single point]",
CC(C)(C)c1ccccc1OCC(=O)Nc1ccccc1C(=O)NCc1cccnc1,active: 16.4 µM,
CCN(CC(=O)Nc1ccccc1C(F)(F)F)CC(=O)c1[nH]c(C)c(C(C)=O)c1C,active: 16.4 µM,
CC1=C(C(=O)Nc2cccnc2)C(c2ccccc2)n2nc(SCc3ccccc3Cl)nc2N1 (stereo not given),,inactive: -10.9%

Compound,Potency,"activity change, negative = growth inhibition"
Cc1c(O)nc(SC2CC(=O)N(c3cc(Cl)cc(Cl)c3)C2=O)[nH]c1=O (stereo not given),,inactive: -5.69%
CCc1ccc(NC(=O)CN2C(=O)C(c3ccc(F)cc3)=NC2(C)C)cc1,,inactive: -14.8%
CC(C)CC(=O)N1CCC(O)(CS(=O)(=O)Cc2ccc(Cl)cc2)CC1,,inactive: -0.754%
CCOC(=O)[C@@H]1[C@H]2COc3ccc(Br)cc3[C@@H]2N2C(=O)N(c3ccc(Br)cc3)C(=O)[C@@]12C,"inconclusive [inhibitor, single point]",
CN(C)CCN(Cc1cc2cc3c(cc2[nH]c1=O)OCO3)C(=S)NCc1ccco1,,inactive: -22.8%
Nc1ccc(/C=C/C(=O)c2ccco2)cc1,"inconclusive [inhibitor, single point]",
CC1(C2CC2)NC(=O)N(CC(=O)Nc2ccc(SC(F)F)cc2)C1=O (stereo not given),"inconclusive [inhibitor, single point]",
CC(C)(C)C(=O)Cn1c(NCCO)nc2ccccc21,,inactive: -3.49%
O=C(N/N=C/c1ccccn1)c1ccc(Br)cc1,active: 14.6 µM,
CCCCNC(=O)c1cc2cc(OC)ccc2[nH]1,,inactive: -22.6%
C[C@H]1CN([C@@H](C)CO)C(=O)c2cc(Br)cnc2O[C@@H]1CN(C)C(=O)C1CCC1,,inconclusive: -4.04% [inhibitor]
O=C(C1CCCN1S(=O)(=O)c1cccc2cccnc12)N1CCc2ccccc2C1 (stereo not given),"inconclusive [inhibitor, single point]",
Cc1cccc(NC(=O)c2ccc(Cl)c(S(=O)(=O)N3CCCC3)c2)n1,"inconclusive [inhibitor, full curve, poor fit]",
CCOCCCNC(=O)c1cc2c(-c3ccc(Cl)cc3)nn(C)c2s1,"inconclusive [inhibitor, single point]",
CN(C)c1nnnn1-c1ccccc1Oc1ncc(C(F)(F)F)cc1Cl,,inactive: -17.4%
CC1Cc2ccccc2N1C(=O)CN1C(=O)NC2(CCCCC2)C1=O (stereo not given),"inconclusive [inhibitor, single point]",
Cc1ccc(S(=O)(=O)N2CCOCC2)cc1NC(=O)COC(=O)c1ccc(OCc2c(C)noc2C)cc1,"inconclusive [inhibitor, single point]",
CCCc1[nH]n(-c2ccc(F)cc2)c(=O)c1C=Nc1cccc(F)c1,active: 6.51 µM,
COc1ccc([C@H]2CC(=O)C=C(/C=C/c3ccccc3)C2)cc1OC,"inconclusive [inhibitor, single point]",
Cc1ccc(Cl)cc1N1CCN(C(=O)C2CCN(S(=O)(=O)c3cccnc3)CC2)CC1,active: 4.61 µM,
CCCCOc1ccc(Cn2c(=O)oc3ccc(C)cc32)cc1,"inconclusive [inhibitor, single point]",
Cc1ccccc1CNC(=O)CCNS(=O)(=O)c1ccc(OC(F)(F)F)cc1,"inconclusive [inhibitor, single point]",
CCOC(=O)C1CCN(C(=O)CCc2c(C)nc3c(-c4ccc(F)cc4)c(C)nn3c2C)CC1,"inconclusive [inhibitor, single point]",
NC(=S)n1[nH]c(-c2ccccc2)c(N=Nc2ccccc2C(=O)N2CCOCC2)c1=O,"inconclusive [inhibitor, partial curve]",

Compound,Potency,"activity change, negative = growth inhibition"
CCCCCCn1c(CN2CCCCC2C)nc2c1c(=O)n(C)c(=O)n2C (stereo not given),"inconclusive [inhibitor, single point]",
CCN(CC)C(=O)[C@H]1C[C@H](CC(=O)NCCC2=CCCCC2)C(=O)N2CCc3c([nH]c4cc(CCC(=O)N(C)C)ccc34)[C@]12C,"inconclusive [inhibitor, single point]",
Cc1ccc(S(=O)(=O)N2CCCC2)cc1[N+](=O)[O-],,inactive: -7.24%
COc1ccc(OC)c(NC(=O)CSc2cn(CC(=O)N3CCCCCC3)c3ccccc23)c1,active: 20.6 µM,
CCc1nn(CC(=O)N(C)C2CCCCC2)c(=O)c2cc3cc(C)ccc3n12,"inconclusive [inhibitor, single point]",
O=C(NCc1ccncc1)C12CC3CC(CC(C3)C1)C2,,inactive: -9.39%
CCC(C)C(=O)Nc1ccc([N+](=O)[O-])cc1OC (stereo not given),,inactive: -1.16%
CCCCCCn1c(=O)n2n(c1=O)[C@@H]1CN(S(=O)(=O)c3ccc(C)cc3)C[C@]1(O)[C@@H](OC(=O)NC1CCCC1)C2,"inconclusive [inhibitor, single point]",
Cc1cccc(-c2nnn3c2nc(NCCc2ccc(S(N)(=O)=O)cc2)c2ccccc23)c1,active: 8.2 µM and active: 16.4 µM,
Cc1cccc(C(=O)Nc2ccccc2C(=O)OCC(=O)Nc2ccc(C#N)cc2)c1,"inconclusive [inhibitor, full curve, poor fit]",
Nc1nc(SCC(=O)Nc2ncc(Cl)cc2Cl)n[nH]1,,inactive: -21.4%
O=C(CS(=O)(=O)c1cccc2nsnc12)Nc1ccc(F)cc1,"inconclusive [inhibitor, single point]",
CC(C)(C)OC(=O)N1CCN(c2nc(-c3cccs3)nc3ccccc23)CC1,active: 8.91 µM,
COC(=O)c1cc(OC)c(OC)cc1NCC(=O)Nc1ccc(OC)c(OC)c1,active: 13 µM,
O=C(Nc1cccc(NC(=O)c2ccc(Cl)cc2Cl)c1)c1cccnc1,"inconclusive [inhibitor, single point]",
COc1ccccc1NC(=O)/C(=C\c1cccnc1)NC(=O)c1ccccc1,,inactive: -11.4%
COCCN(C(=O)c1ccco1)c1nc(-c2ccc(OC)cc2)cs1,active: 16.4 µM,
Cc1ccc2c(c1)C=CC(C#N)N2C(=O)c1ccccc1 (stereo not given),active: 1.84 µM,
O=C(CSc1ncc(C(F)(F)F)cc1Cl)N1CCN(S(=O)(=O)c2ccc(Cl)cc2)CC1,"inconclusive [inhibitor, single point]",
CC(=O)NCCc1nc2ccccc2n1Cc1ccc(Cl)cc1,"inconclusive [inhibitor, partial curve]",
C[C@]12c3[nH]c4ccccc4c3CCN1C(=O)C(CC(=O)NCCCn1ccnc1)C[C@@H]2C(=O)N1CCOCC1 (stereo not given in full),,inactive: 2.01%
CCS(=O)(=O)c1nc(S(=O)(=O)c2ccc(Cl)cc2)c(N2CCCC2)s1,"inconclusive [inhibitor, single point]",
